# Some of the results follow.
# B1: EEA (Euonymus europaeus) (protein)
# chain: MASTIIATGPTYRVYCRAAPNYNMIVGKGVAFLAPIDETNELQYWYKDDTYSYIKDEAGLPAFSLVNKATGLTLKHSNHHPVPVKLVTYNPNVVDESVLWSQADDRGDGYSAIRSLTNPASHLEAAPLNDWSYNGAIIMGGVWIDAYNQQWKIEPHTG
# Tests used:
# Assay in all cases: glycan array binding signal (z-score within array); higher = stronger binding
# Conditions in all cases: glycan notation: IUPAC condensed, linker removed
# [1] = biological target: Neu5Ac(a2-3)Gal(b1-4)GlcNAc(b1-3)Gal(b1-4)GlcNAc(b1-2)Man(a1-3)[Neu5Ac(a2-3)Gal(b1-4)GlcNAc(b1-3)Gal(b1-4)GlcNAc(b1-2)Man(a1-6)]Man(b1-4)GlcNAc(b1-4)GlcNAc
# Procedure, shortened: (§1)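 The Consortium for Functional Glycomics database supplied 3228 glycan arrays, of which those lacking an available protein sequence were dropped. The binding signal, a within-array Z-score, was averaged across arrays of the same protein sequence and across linkers. Negative scores can be read as non-binding.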
# [2] = biological target: Neu5Ac(a2-3)Gal(b1-4)GlcNAc(b1-3)Gal(b1-4)GlcNAc(b1-3)Gal(b1-4)GlcNAc
# Procedure, shortened: as §1
# [3] = biological target: Neu5Ac(a2-3)Gal(b1-4)GlcNAc(b1-3)Gal(b1-4)GlcNAc(b1-3)Gal(b1-4)GlcNAc(b1-2)Man(a1-3)[Neu5Ac(a2-3)Gal(b1-4)GlcNAc(b1-3)Gal(b1-4)GlcNAc(b1-3)Gal(b1-4)GlcNAc(b1-2)Man(a1-6)]GalNAc
# Procedure, shortened: as §1
# [4] = biological target: Neu5Ac(a2-3)Gal(b1-4)GlcNAc(b1-3)Gal(b1-4)GlcNAc(b1-3)GalNAc
# Procedure, shortened: as §1
# [5] = biological target: Neu5Ac(a2-3)Gal(b1-4)GlcNAc(b1-3)Gal(b1-4)GlcNAc(b1-3)[Neu5Ac(a2-3)Gal(b1-4)GlcNAc(b1-3)Gal(b1-4)GlcNAc(b1-6)]GalNAc
# Procedure, shortened: as §1
# [6] = biological target: Neu5Ac(a2-3)Gal(b1-4)GlcNAc(b1-3)Gal(b1-4)GlcNAc(b1-6)[Gal(b1-3)]GalNAc
# Procedure, shortened: as §1
# [7] = biological target: Neu5Ac(a2-3)Gal(b1-4)GlcNAc(b1-3)Gal(b1-4)[Fuc(a1-3)]GlcNAc
# Procedure, shortened: as §1
# [8] = biological target: Neu5Ac(a2-3)Gal(b1-4)GlcNAc(b1-3)GalNAc
# Procedure, shortened: as §1
# [9] = biological target: Neu5Ac(a2-3)Gal(b1-4)GlcNAc(b1-3)[Neu5Ac(a2-3)Gal(b1-4)GlcNAc(b1-6)]GalNAc
# Procedure, shortened: as §1
# [10] = biological target: Neu5Ac(a2-3)Gal(b1-4)GlcNAc(b1-6)GalNAc
# Procedure, shortened: as §1
# [11] = biological target: Neu5Ac(a2-3)Gal(b1-4)GlcNAc(b1-6)[Gal(b1-3)]GalNAc
# Procedure, shortened: as §1
# [12] = biological target: Neu5Ac(a2-3)Gal(b1-4)GlcNAc(b1-6)[Neu5Ac(a2-3)Gal(b1-3)]GalNAc
# Procedure, shortened: as §1
# [13] = biological target: Neu5Ac(a2-3)Gal(b1-4)GlcNAc6S
# Procedure, shortened: as §1
# [14] = biological target: Neu5Ac(a2-3)Gal(b1-4)[Fuc(a1-3)]GlcNAc
# Procedure, shortened: as §1
# [15] = biological target: Neu5Ac(a2-3)Gal(b1-4)[Fuc(a1-3)]GlcNAc(b1-2)Man
# Procedure, shortened: as §1
# [16] = biological target: Neu5Ac(a2-3)Gal(b1-4)[Fuc(a1-3)]GlcNAc(b1-3)Gal
# Procedure, shortened: as §1
# [17] = biological target: Neu5Ac(a2-3)Gal(b1-4)[Fuc(a1-3)]GlcNAc(b1-3)Gal(b1-4)GlcNAc
# Procedure, shortened: as §1
# [18] = biological target: Neu5Ac(a2-3)Gal(b1-4)[Fuc(a1-3)]GlcNAc(b1-3)Gal(b1-4)[Fuc(a1-3)]GlcNAc(b1-3)Gal(b1-4)[Fuc(a1-3)]GlcNAc
# Procedure, shortened: as §1
# [19] = biological target: Neu5Ac(a2-3)Gal(b1-4)[Fuc(a1-3)]GlcNAc(b1-3)GalNAc
# Procedure, shortened: as §1
# [20] = biological target: Neu5Ac(a2-3)Gal(b1-4)[Fuc(a1-3)]GlcNAc(b1-6)[Gal(b1-3)]GalNAc
# Procedure, shortened: as §1
# [21] = biological target: Neu5Ac(a2-3)Gal(b1-4)[Fuc(a1-3)]GlcNAc(b1-6)[Neu5Ac(a2-3)Gal(b1-3)]GalNAc
# Procedure, shortened: as §1
# [22] = biological target: Neu5Ac(a2-3)Gal(b1-4)[Fuc(a1-3)]GlcNAc6S
# Procedure, shortened: as §1
# [23] = biological target: Neu5Ac(a2-3)Gal6S(b1-4)GlcNAc
# Procedure, shortened: as §1
# [24] = biological target: Neu5Ac(a2-3)Gal6S(b1-4)[Fuc(a1-3)]GlcNAc
# Procedure, shortened: as §1
# Neu5Ac(a2-3)GalNAc = biological target: Neu5Ac(a2-3)GalNAc
# Procedure, shortened: as §1
# [25] = biological target: Neu5Ac(a2-3)GalNAc(b1-4)GlcNAc
# Procedure, shortened: as §1
# [26] = biological target: Neu5Ac(a2-3)[GalNAc(b1-4)]Gal(b1-4)Glc
# Procedure, shortened: as §1
# [27] = biological target: Neu5Ac(a2-3)[GalNAc(b1-4)]Gal(b1-4)GlcNAc
# Procedure, shortened: as §1
# [28] = biological target: Neu5Ac(a2-3)[GalNAc(b1-4)]Gal(b1-4)GlcNAc(b1-3)GalNAc
# Procedure, shortened: as §1
# [29] = biological target: Neu5Ac(a2-3)[Neu5Ac(a2-6)]GalNAc
# Procedure, shortened: as §1
# Neu5Ac(a2-6)Gal = biological target: Neu5Ac(a2-6)Gal
# Procedure, shortened: as §1
# [30] = biological target: Neu5Ac(a2-6)Gal(b1-3)GlcNAc(b1-3)[Gal(b1-4)GlcNAc(b1-6)]Gal(b1-4)Glc
# Procedure, shortened: as §1
# Neu5Ac(a2-6)Gal(b1-4)Glc = biological target: Neu5Ac(a2-6)Gal(b1-4)Glc
# Procedure, shortened: as §1
# [31] = biological target: Neu5Ac(a2-6)Gal(b1-4)GlcNAc
# Procedure, shortened: as §1
# [32] = biological target: Neu5Ac(a2-6)Gal(b1-4)GlcNAc(b1-2)Man
# Procedure, shortened: as §1
# [33] = biological target: Neu5Ac(a2-6)Gal(b1-4)GlcNAc(b1-2)Man(a1-3)Man(b1-4)GlcNAc(b1-4)GlcNAc
# Procedure, shortened: as §1
# [34] = biological target: Neu5Ac(a2-6)Gal(b1-4)GlcNAc(b1-2)Man(a1-3)[Gal(b1-4)GlcNAc(b1-2)Man(a1-6)]Man(b1-4)GlcNAc(b1-4)GlcNAc
# Procedure, shortened: as §1
# [35] = biological target: Neu5Ac(a2-6)Gal(b1-4)GlcNAc(b1-2)Man(a1-3)[GlcNAc(b1-2)Man(a1-6)]Man(b1-4)GlcNAc(b1-4)GlcNAc
# Procedure, shortened: as §1
# [36] = biological target: Neu5Ac(a2-6)Gal(b1-4)GlcNAc(b1-2)Man(a1-3)[GlcNAc(b1-2)Man(b1-4)GlcNAc(b1-2)Man(a1-6)]Man(b1-4)GlcNAc(b1-4)GlcNAc
# Procedure, shortened: as §1
# [37] = biological target: Neu5Ac(a2-6)Gal(b1-4)GlcNAc(b1-2)Man(a1-3)[GlcNAc(b1-4)][Neu5Ac(a2-6)Gal(b1-4)GlcNAc(b1-2)Man(a1-6)]Man(b1-4)GlcNAc(b1-4)GlcNAc
# Procedure, shortened: as §1
# [38] = biological target: Neu5Ac(a2-6)Gal(b1-4)GlcNAc(b1-2)Man(a1-3)[Man(a1-6)]Man(b1-4)GlcNAc(b1-4)GlcNAc
# Procedure, shortened: as §1
# [39] = biological target: Neu5Ac(a2-6)Gal(b1-4)GlcNAc(b1-2)Man(a1-3)[Neu5Ac(a2-3)Gal(b1-4)GlcNAc(b1-2)Man(a1-6)]Man(b1-4)GlcNAc(b1-4)GlcNAc
# Procedure, shortened: as §1
# [40] = biological target: Neu5Ac(a2-6)Gal(b1-4)GlcNAc(b1-2)Man(a1-3)[Neu5Ac(a2-6)Gal(b1-4)GlcNAc(b1-2)Man(a1-6)]Man(b1-4)GlcNAc(b1-4)GlcNAc
# Procedure, shortened: as §1
# [41] = biological target: Neu5Ac(a2-6)Gal(b1-4)GlcNAc(b1-2)Man(a1-3)[Neu5Ac(a2-6)Gal(b1-4)GlcNAc(b1-2)Man(a1-6)]Man(b1-4)GlcNAc(b1-4)[Fuc(a1-6)]GlcNAc
# Procedure, shortened: as §1
# [42] = biological target: Neu5Ac(a2-6)Gal(b1-4)GlcNAc(b1-2)Man(a1-6)Man(b1-4)GlcNAc(b1-4)GlcNAc
# Procedure, shortened: as §1
binder,measurement,setting,value
B1,glycan array binding signal (z-score),[1],0.67
same,glycan array binding signal (z-score),[2],-0.14
same,glycan array binding signal (z-score),[3],1.19
same,glycan array binding signal (z-score),[4],-0.231
same,glycan array binding signal (z-score),[5],0.105
same,glycan array binding signal (z-score),[6],0.122
same,glycan array binding signal (z-score),[7],-0.184
same,glycan array binding signal (z-score),[8],-0.202
same,glycan array binding signal (z-score),[9],-0.197
same,glycan array binding signal (z-score),[10],-0.205
same,glycan array binding signal (z-score),[11],-0.15
same,glycan array binding signal (z-score),[12],-0.219
same,glycan array binding signal (z-score),[13],-0.245
same,glycan array binding signal (z-score),[14],-0.193
same,glycan array binding signal (z-score),[15],-0.256
same,glycan array binding signal (z-score),[16],-0.126
same,glycan array binding signal (z-score),[17],-0.172
same,glycan array binding signal (z-score),[18],-0.207
same,glycan array binding signal (z-score),[19],-0.117
same,glycan array binding signal (z-score),[20],-0.043
same,glycan array binding signal (z-score),[21],-0.15
same,glycan array binding signal (z-score),[22],-0.196
same,glycan array binding signal (z-score),[23],-0.212
same,glycan array binding signal (z-score),[24],-0.226
same,glycan array binding signal (z-score),Neu5Ac(a2-3)GalNAc,-0.268
same,glycan array binding signal (z-score),[25],-0.262
same,glycan array binding signal (z-score),[26],-0.207
same,glycan array binding signal (z-score),[27],-0.212
same,glycan array binding signal (z-score),[28],0.46
same,glycan array binding signal (z-score),[29],-0.34
same,glycan array binding signal (z-score),Neu5Ac(a2-6)Gal,-0.205
same,glycan array binding signal (z-score),[30],-0.232
same,glycan array binding signal (z-score),Neu5Ac(a2-6)Gal(b1-4)Glc,-0.176
same,glycan array binding signal (z-score),[31],-0.16
same,glycan array binding signal (z-score),[32],-0.13
same,glycan array binding signal (z-score),[33],-0.169
same,glycan array binding signal (z-score),[34],-0.163
same,glycan array binding signal (z-score),[35],-0.226
same,glycan array binding signal (z-score),[36],-0.242
same,glycan array binding signal (z-score),[37],-0.2
same,glycan array binding signal (z-score),[38],-0.235
same,glycan array binding signal (z-score),[39],-0.105
same,glycan array binding signal (z-score),[40],-0.208
same,glycan array binding signal (z-score),[41],-0.102
same,glycan array binding signal (z-score),[42],-0.263

# Reference: the supplement of paper PMC8728848
